The results in this text go back to article PMC3297496.

No constants are given. Whether binding was seen depends on the method and setting. Binding seen in cells or lysates may run through a third protein. Some results given as binding are weak or reduced against the parent protein; the word gives no strength. Where a sequence is shown, tags or fusion partners need not be part of it.

Assay [1] concerns the target T1, His-tagged GPA-15, in-vitro translated (pTNT-HIS) (C. elegans) (UniProt P91907).
T1 sequence (chain, translated in the presence of biotinylated lysyl-tRNA): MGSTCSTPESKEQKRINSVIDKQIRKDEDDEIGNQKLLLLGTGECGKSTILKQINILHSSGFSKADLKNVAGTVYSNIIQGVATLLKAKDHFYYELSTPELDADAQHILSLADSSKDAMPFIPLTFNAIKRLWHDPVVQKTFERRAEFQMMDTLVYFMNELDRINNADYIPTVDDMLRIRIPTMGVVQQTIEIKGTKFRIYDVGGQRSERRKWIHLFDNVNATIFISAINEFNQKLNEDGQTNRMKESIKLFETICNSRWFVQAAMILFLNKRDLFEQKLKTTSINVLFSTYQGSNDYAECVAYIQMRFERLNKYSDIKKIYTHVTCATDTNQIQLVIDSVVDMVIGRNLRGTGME
Nature of the assay: pull-down; His pull-down: in-vitro translated His-tagged G-alpha and in-vitro translated DOP-2 truncations, 4°C, 20 mM sodium phosphate, 500 mM NaCl, 5% BSA; nickel resin (MagZ particles); SDS-PAGE, colorimetric detection.

In assay [2] the target is T2, His-tagged GPA-14, in-vitro translated (pTNT-HIS) (C. elegans) (UniProt Q9BIG2).
T2 sequence (chain, translated in the presence of biotinylated lysyl-tRNA): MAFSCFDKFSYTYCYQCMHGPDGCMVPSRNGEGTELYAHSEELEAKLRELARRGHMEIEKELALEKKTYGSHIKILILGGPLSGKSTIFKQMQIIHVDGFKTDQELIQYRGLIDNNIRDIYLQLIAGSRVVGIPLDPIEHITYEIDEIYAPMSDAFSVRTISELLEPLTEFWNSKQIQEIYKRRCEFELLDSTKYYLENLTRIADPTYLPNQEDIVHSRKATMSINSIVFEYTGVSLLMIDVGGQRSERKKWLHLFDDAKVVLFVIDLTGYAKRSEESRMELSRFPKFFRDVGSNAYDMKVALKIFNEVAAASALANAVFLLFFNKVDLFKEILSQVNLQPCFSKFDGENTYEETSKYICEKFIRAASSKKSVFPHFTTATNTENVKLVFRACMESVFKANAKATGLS
Described as above.

B1: DOP-2-CV (DOP-2XL amino acids 1-182, il1+il2), in-vitro translated (domain or fragment, UniProt E7EM37 1-182)
chain: MEAGETWNVSLEWPPPSLDLSTITQTPSTIVGSGIPLNYAGLSLIVIPLITLLGNLLVIISVLRYRALQSAINFLILGLAVADLLVAIIVMPYAVYVYVTNGDWYLGNLMCDIYMASDVCCSTASILLLAVISFDRYRAVSLPIQYSRQSQNVKRVWTLIAVIWLVSLTLASPMVFGVNVRP
modifications: translated in the presence of biotinylated lysyl-tRNA
In the case of B1, the binding entry in assay [1] and in assay [2] was “no binding” in each case.

B2: DOP-2-CVI (DOP-2XL amino acids 183-849, il3+Ct region), in-vitro translated (domain or fragment, UniProt E7EM37 183-849)
chain: PDANPYECRFYNAEFSILSSMISFVIPCFLVLFVYIRIIIALKKREKAAKMRREKNTIAHGLTMRPDTGEEQVDEEAAGRIVAGPVVNVMMAALPSMTRRMRQFERHRRAIELAGDEEWEEDELDVMDECCGGDDAGDDDDDYHADNGQGVVEASAPRTTSMLRRIINAASVGTANSTAQSVASASGMPAFFAQNISTTSPSSSSCARTTTTTSAIPKASGDLPLPMLLNEREFGNSSTPRSSLESLSENVNVITNDFVSENCTTFSRRSSYADDSQPTSSQTSSGDGRSYSIKGQKRFRNLSRNYSTKHHRKVVKVNRGNSRNNSRTASITNQSDDALIPAIIRTISRKSPRLFRRDKTDIKKHSMILANPITEPPKEYRRVSMPIHPTNSQTETETISASRDIENLPTTTISRSTTANSAELLGSPDDFEKFPALITETVLEDVLAETREGCFMQPTVSFALTVREMEGNALNNLKGCSVESSRRVSQVDPPLAIQILTRPSLPHLDLQRMDSIGTTCSSKTRADSLRSVDSKGSKKSNRNGIAVKLVKRAIKHEHSLKRKVSKAQRKEKRATKTLGVVVGVFLVCWVPFFVINILNAVCILLNKDSCQVGYDLFFYCTWIGYMNSFMNPIIYTIFNTEFRRAFKSIIFGRNSTRHHFSNKQAHV
modifications: translated in the presence of biotinylated lysyl-tRNA
Consider B2, for which the binding result is “no binding” in assay [1] and “binds” in assay [2].
